Measured values as given in the supplement of paper PMC11417369.
± gives the standard deviation of the averaged measurements. This is one part of the list.

The sequences below were run on PfAP2-LT AP2 domain (GST-tagged) (assay: gcPBM binding intensity (ln(normalized median fluorescence intensity)); higher = stronger DNA binding).
Outline: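 For binding intensity, the highest Masliner-normalised natural-log median intensity across replicate spots of either probe orientation was taken. Protein bound to the array was stained with Alexa488 anti-GST antibody and scanned at 488 nm. The protein, GST-tagged P. falciparum DNA-binding domains from E. coli at about 25 μg on average, had been applied for 1 h to an Agilent 4 × 180k array of primer-extended double-stranded 36-bp intergenic genomic probes and negative controls.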

Sequence	gcPBM binding intensity (ln)
AAAAAAAAAAAAAATTCACACAAGACTACTACATTT [CACACA_site4195]	8.71 ± 0.4
ATATATGACTAATAAAGTACATACTTCATATAATTA [XGTACX_site6699]	8.72 ± 0.4
AATATTAAAAACAAAACACACAAAAAAAAATAAAAT [CACACA_site702]	9.03 ± 0.58
ACCCTTTTATATAAGAGTACAAACGTATTATTAAAT [XGTACX_site2221]	8.64 ± 0.42
TATATTATATATATACTGCACTGTTTTACAAAATTA	8.76 ± 0.38
GTAGTGGTTGAATATACACACATATATATATATATA [CACACA_site2651]	9.87 ± 0.28
AACGTGTATTTATATTGTACACATTCATACATCAAA [XGTACX_site3644]	8.81 ± 0.35
AGATAATAGGTTACTTGTACATATAAATAAATATAT [XGTACX_site158]	8.71 ± 0.45
TATATAAATAAACACACACACACCTTATAATTATTA [CACACA_site9345]	9.775 ± 0.078
CTTGTCATTTGGCACACACACATGTATAGGTTATTA [CACACA_site5656]	9.54 ± 0.29
TGAATAAATCAAAGCACACATACACAGACATATATA [CACACA_site4316]	9.36 ± 0.36
AACAGATAATATAAAAAAAAAAAAAAAAATAATTAA [GTGCAC_negctrl_site69]	8.55 ± 0.58
TTTTAGTTATTGTATTATTATTAATATATAATATCT [CACACA_negctrl_site1528]	8.59 ± 0.53
CTAAAATGTAAAAACGCACACATAATATTATAAAAA [CACACA_site2788]	9.26 ± 0.42
AAAGCATGTTAATATGTATAAATACTGATCATTCAC [GTGCAC_negctrl_site576]	8.8 ± 0.39
TATATATATATATATGTACACACATCAATCATATTA [CACACA_site8594]	9.54 ± 0.18
GAATAAATAATTAACACACACAATCTTTTTTTTTTT [CACACA_site3140]	9.12 ± 0.3
TCACTTTTTATTAAATGTACATGCTTTCATTTTCAT [XGTACX_site8139]	8.98 ± 0.52
AAAAAAAAAATAAAATAAAATATATTATATATATTA [GTGCAC_negctrl_site431]	8.25 ± 0.67
CCACAGGATTGGTTCAAACACACATATTATATGACT [CACACA_site661]	8.93 ± 0.39
TATTTTTTTTTTTTTTGTACACATAATTGTAATCGT [XGTACX_site8415]	8.82 ± 0.43
CATATAAAAATGTGCACACACACACCGATATATATT [CACACA_site4940]	9.95 ± 0.17

Sequence	gcPBM binding intensity (ln)
TGTACGAGTCGTAGAGTGCAGTCTGGAGAAAAGTAC [GTGCAC_site9683]	9.13 ± 0.4
TATATATATATATATACACACTTGTGCAGAATATTA [CACACA_site5257]	9.79 ± 0.057
TATAAATGTGTATGCGCATGTAAAAATATAATTTAT [TGCATGCA_site750]	9.01 ± 0.43
GTAAATAATAAACACCGTACATGGTATAATTCAATG [XGTACX_site3655]	9.11 ± 0.41
AAATAAATAAATAGACGTACAAAAATATTATACATT [XGTACX_site6776]	8.96 ± 0.52
AATAATGAAAAAATGAATAAAATTACTATATAATTC [XGTACX_negctrl_site457]	8.49 ± 0.64
GATATGATGTGTTTGGTAGTTTTTGATGTTGGCATG [GTGCAC_negctrl_site506]	9.03 ± 0.45
ACAAAAAATTAATGAGAAATGGAATAATAAGTTATA [GTGCAC_negctrl_site321]	8.61 ± 0.54
GGATATTAATAAATATGTACATATGTAGATTTATTA [XGTACX_site554]	8.93 ± 0.45
TATAAATAGAGGAAGCGTACATATATATATATATAT [XGTACX_site4993]	10 ± 0.38
TGTATACCTTAATATACACACATACCTATATTTATA [CACACA_site6746]	8.95 ± 0.42
ATATATAAATATATATGTACATAAATATATATCTTT [XGTACX_site6910]	8.85 ± 0.31
AAGAAAAAAAAAAAAACACACATATATATATATATA [CACACA_site2027]	10.1 ± 0.14
AGGTGCTTAATATATACACACATACAGATATATATA [CACACA_site5552]	9.12 ± 0.37
TTTTTCTTATTTGGATTGCACTACATATATATATAT	9.1 ± 0.59
GAACTCATTACAAAGTGTACAAATTAAATAAATGGT [XGTACX_site3995]	9.07 ± 0.52
ATAAGGTTACAACAAACACACAAAGGAATATACACA [CACACA_site7840]	9.35 ± 0.5
AAAATTTTTTGAAATAGTACTTTTTTATATATATAT [XGTACX_site2634]	8.52 ± 0.33
CAACAAAATAAACACACACACACAAACACAAAAAAA [CACACA_site5806]	10.2 ± 0.27
TATAAATTTATATATGCATGTCAGAAAAAAAAGTAA [TGCATGCA_site414]	8.59 ± 0.49
ATATTTTATACTTGCACACAAAATATATTAGAATGT [CACACA_site1985]	9.11 ± 0.4
GAAATCTAATTTATTACACACATTTGAAAAAAATTC [CACACA_site6640]	8.64 ± 0.42

Sequence	gcPBM binding intensity (ln)
ACCCATTTTTGTTGTTCTATATATTCGTGAATCATT [CACACA_negctrl_site614]	9.02 ± 0.45
TTATATTTTTTTGAGTGTACTTTTTGTGTAAAATTC [XGTACX_site2155]	8.66 ± 0.49
TTACTAAGAAGGATTTATTTTATAAAAATATTTATT [XGTACX_negctrl_site549]	8.2 ± 0.54
AATTTTTTGAATAATTGTACATATTTGGTTAAATAT [XGTACX_site3612]	8.56 ± 0.48
TATTTTTATTGGTGAATACACACGTATATATATATT [CACACA_site2401]	9.02 ± 0.35
TGTTTATGTTTACATGTGCGCATTACAGAAAAAAAA [GTGCAC_site9669]	8.65 ± 0.39
TTTTTATTTAAAAGTAGTACAAGGGTTATTATTAAC [XGTACX_site1555]	8.46 ± 0.52
ACATGTATACTTTTTACGAAAAAAAAAAAAAAAAAA [CACACA_negctrl_site1638]	8.43 ± 0.39
TTTTTTTTTTTTTTTGCACACTTAAATTTGGTGGGG [CACACA_site2344]	9.63 ± 0.057
TACAGATAAATATACATACATATATATATATATATA [XGTACX_negctrl_site182]	9.57 ± 0.042
ATATTATTTTATTTTTGTACAGATATCTTTAAAAAA [XGTACX_site3734]	8.42 ± 0.37
CACGCGCACGAACACACACACACACGCATATAAATA [CACACA_site7103]	9.86 ± 0.33
AACATCATCTCTCCACAACAACAAAAAAAAAAATAC [CACACA_negctrl_site311]	8.82 ± 0.43
TTATTAAAAATGGTATGTACGCACATAATATATATA [XGTACX_site3230]	8.91 ± 0.47
AATACATACATACATACATGCATATATATATATATA [TGCATGCA_site462]	9.97 ± 0.34
AAAATTATATGTAATTGTACGGAATTATATACGCAA [XGTACX_site2048]	8.72 ± 0.41
TCCTGTGGTTATATAACACACATTATTGCTTATAAG [CACACA_site6823]	8.9 ± 0.37
TTTTTTAAAAATATTATCATCGTAACAAGAAATCGA [CACACA_negctrl_site1111]	8.22 ± 0.37
ATGATTTATTATTATACACACAAAAAAAAAAAAGGA [CACACA_site264]	8.84 ± 0.42
GAACAAAAAAAAAATTGTACACAATTTTTTAAAATT [XGTACX_site4455]	8.54 ± 0.54
AATACATACATATATACATGCATACATATAAATATA [TGCATGCA_site674]	9 ± 0.4
GCTTATAAGATATGCACACACAACACTTACAAAAAA [CACACA_site817]	9.39 ± 0.35

Sequence	gcPBM binding intensity (ln)
AAACAAAAAAAATAAGCACACATATATATATATATA [CACACA_site8173]	9.6 ± 0.57
ATTTTATGAAATGTTGCACACAAAAAACAACATGTT [CACACA_site8408]	9.06 ± 0.33
GAACAACAACAAAAAAAAAAAAAAAAAAAAAAAAAA [CACACA_negctrl_site199]	8.12 ± 0.35
TAAATAAATATATGTACACACACAAATATATACATA [CACACA_site8577]	9.24 ± 0.29
TATATGATATAATATACACACATACATATATATATA [CACACA_site8066]	9.27 ± 0.042
CTGAATTTTTATAACTGTACATATTTGATATAAAAA [XGTACX_site183]	8.29 ± 0.38
ATATTTAATACAAATACACACACAAATATATACATA [CACACA_site9248]	9.5 ± 0.23
ATGGGAAAAACATTCCGTACATACATACACATATAT [XGTACX_site8263]	8.99 ± 0.41
ATATTGCTTATTTGATGTACGAATACACTAGTATTA [XGTACX_site4536]	8.88 ± 0.44
TATCTGTATATGTGTACACATATTCTTAACTCACGC [CACACA_site4255]	9.18 ± 0.48
ATACTAAATGAACACACACACATATAGATTTATAAC [CACACA_site6200]	9.79 ± 0.42
AATATTTTAAAAAAATGTACTTTTAACCCTTATTGG [XGTACX_site3490]	8.45 ± 0.45
TATAAAATATAAATTTGTACATATAAAATATTTTAT [XGTACX_site7462]	8.43 ± 0.45
TTTTTTAAAATATAAAATATGTACAAATATGTTGAA [GTGCAC_negctrl_site379]	8.27 ± 0.47
TAATAGTTATAAAATACACACCAGGCATGATAAATG [CACACA_site4335]	8.95 ± 0.4
TATATATATATACATACATATAAAGTTACATAAACA [CACACA_negctrl_site432]	8.76 ± 0.45
GAACAAACAAAGAAAGAACACACATACACAATATAC [CACACA_site8918]	9.6 ± 0.38
TAGATTTTTTTACATTGTACATATTTTTTCTTATAG [XGTACX_site293]	8.76 ± 0.54
ATATATGGGTAGTATACACACTGTATATTTAGGAAT [CACACA_site7357]	9.02 ± 0.47
GTATGAAAAAAATATGCATGCTAAATAATAAATGTT [TGCATGCA_site352]	8.96 ± 0.4
ATCATTTTTATAAATTGTACAAATATTTTTTATACA [XGTACX_site7551]	8.54 ± 0.45
ATTTCGTAATTTATATCACACACATATATATATAAT [CACACA_site9021]	9.2 ± 0.42
